# B1: BdDHS1b: deregulated DHS1b enzyme of Brachypodium distachyon, SEQ ID NO: 3 (protein)
# chain: MALATNHAAAAISSGAAAPQPRRAPSFLPLKRRTICAVHAAEPSKSAAAAPAAAKTSSPSVAPEKSAIPDPKPEAPAVPAKWTVDSWRAKKALQLPEYPNAAELESALKTIEAFPPIVFAGEARHLEERLADAAMGRAFLLQGGDCAESFKEFNGNNIRDTFRVLLQMSAVLTFGGQMPVIKVGRMAGQFAKPRSDSFEVRDGVKLPSYRGDNINGDAFNEKSRIPDPQRMIRAYTQSAATLNLLRAFAMGGYAAMQRVTQWNLDFTENSEQGDRYRELAHRVDEALGFMSAAGLTLDHPVMSSTEFWTSHECLLLPYEQALTRQDSTSGLFYDCSAHMLWVGERTRQLDGAHVEFLRGVANPLGIKVSDKMNPADLVKLIDILNPTNKPGRITIITRMGAENMRVKLPHLIRAVRHAGQIVTWITDPMHGNTIKAPCGLKTRPFDSILAEVRAFFDVHEQEGSHAGGVHLEMTGQNVTECIGGSRTVTFDDLGDRYHTHCDPRLNASQSLELSFIIAEKLRKRRIRSSKLNSVLPLPTYGF
# modifications: Brachypodium distachyon
# Key:
# [1] = system: Nicotiana benthamiana leaves; assay: Transient expression of Brachypodium DHS in Nicotiana benthamiana leaves (AtRbcS3B promoter), UHPLC-MS; type: in vivo; settings: three days after transient expression
# Protocol: Agrobacterium tumefaciens strain GV3101 transformed with the plant expression constructs were grown at 28° C. for 24 to 36 hours in 10 mL of LB liquid media containing the corresponding antibiotics. The saturated cultures were spun down at 3,000 g for 5 minutes at room temperature and washed twice with 3 mL of induction media (IM; 10 mM MES [2-(N-morpholino) ethanesulfonic acid] buffer pH 5.6, 0.5% glucose, 2 mM NaH2PO4, 20 mM NH4Cl, 1 mM MgSO4, 2 mM KCl, 0.1 mM CaCl2), 0.01 mM FeSO4, and 0.2 mM acetosyringone). After washing, bacteria cultures were incubated in IM for 2 to 3 hours at room temperature in the dark, pelleted at 3000 g for 5 minutes, and resuspended into 3 mL of 10 mM MES buffer pH 5.6 with 0.2 mM acetosyringone. OD600nm was adjusted to a final density of 0.25 units for pAGM4673::TyrA (FIG. 3F) and pICH47822::DHS (FIG. 5A) infiltration, or 0.5 units for pAGM4673::TyrA-DHS co-expression constructs (FIG. 5B) using 10 mM MES buffer pH 5.6 with 0.2 mM acetosyringone. For infiltration of pICH47822::DHS constructs, the Agrobacterium suspensions were adjusted to OD600nm=0.5 and mixed with an equal volume of a suspension of an Agrobacterium clone transformed with pICH4780::p19 under control of the Arabidopsis ubiquitin ligase promoter adjusted to OD600nm=0.5, resulting in a final mixture of 0.25 OD600nm units for each construct. […] Nicotiana benthamiana plants of around 4-weeks-old were infiltrated close to the end of the light period into four different spots per plant, distributed into two leaves at two infiltrations per leaf, with each individual spot corresponding with a different construct/treatment. In total, each construct was infiltrated as 5 or 6 independent replicates into different plants following a randomized pattern. Samples consisting of the infiltrated leaf limbs, without the main veins, were harvested at ˜72 hours post infiltration and subjected to HPLC or UHPLC-MS analysis (see details below).
# Around 30-40 mg of pulverized frozen plant tissue were resuspended into 400 μL of chloroform:methanol (1:2) for ˜1 hour with regular vortexing, followed by centrifugation at 20,000 g for 5 minutes at room temperature. The whole supernatant was transferred to a fresh tube, mixed with 125 μL of chloroform, 300 μL of water, and spun down at 15,000 g for 5 minutes for phase separation. The upper, aqueous phase was recovered and dried down for 4 hours to overnight in a speed-vac at 40° C. […]
# Aromatic amino acids and shikimate were detected using a Vanquish Horizon Binary UHPLC (Thermo Scientific) coupled to a Q Exactive mass spectrometer (Thermo Scientific). Two microliters of the sample were analyzed using a InfinityLab Poroshell 120 HILIC-Z column (150×2.1 mm, 2.7-μm particle size; Agilent) in a gradient of 5 mM ammonium acetate/0.2% acetic acid buffer in water (solvent A) and 5 mM ammonium acetate/0.2% acetic acid buffer in 95% acetonitrile (solvent B) at a flow rate of 0.45 mL/min and column temperature of 40° C. […] Full MS spectra were recorded between 2 and 19 minutes using full scan in negative mode, under the following parameters: sheath gas flow rate, 55; auxiliary gas flow rate, 20; sweep gas flow rate, 2; spray voltage, 3 kV; capillary temperature, 400° C.; S-lens RF level, 50; resolution, 70,000; AGC target 3×10^6, maximum scan time 100 ms; scan range 70-1050 m/z. […] For ^13C labeled plant samples, ^13C-isotopologues were detected based on a mass increase of 1.00335 atomic mass units for each ^13C atom. […]
# [2] = system: Nicotiana benthamiana leaves; assay: Transient expression of DHS1b orthologs in Nicotiana benthamiana leaves, LCMS (FIG. 21); type: in vivo; settings: 72 hours post-infiltration
# Text: To determine whether the grass DHS1b gene encodes a deregulated DHS in other grass species besides Brachypodium distachyon, BdDHS1b orthologs from Oryza sativa (OsDHS1b) and Sorghum bicolor (SbDHS1b) were cloned into the Golden Gate plant expression vector pICH47822 under control of the RuBisCO small subunit 3B promoter from Arabidopsis thaliana.^52 A 3× human influenza hemagglutinin tag was fused in frame to the C-terminus of the DHS genes to confirm the production of heterologous DHS protein.
# Agrobacterium tumefaciens (strain GV3101) clones transformed with the OsDHS1b and SbDHS1b plant expression constructs were infiltrated into the leaves of Nicotiana benthamiana side-by-side with Agrobacterium clones expressing BdDHS1a, BdDHS1b, and the fluorescent protein YPet (negative control). The levels of phenylalanine, tyrosine, tryptophan, and three of their biosynthetic intermediates (shikimate, prephenate, and arogenate) were determined at 72 hours post-infiltration by liquid chromatography coupled to mass spectrometry (LCMS). […] On average, expression of BdDHS1b or OsDHS1b increased phenylalanine, tyrosine, and shikimate levels by 5 to 20-times compared to the YPet negative control (FIG. 21), whereas prephenate and arogenate rose to ˜100-times the control (FIG. 21). […]
# [3] = DHS activity with combinations of effectors; type: biochemical; settings: 0.15 mM each effector (FIG. 19)
# Protocol: DHS effector molecules can have synergistic effects when combined in vitro^51. To explore this possibility, we tested the impact of different combinations of tryptophan, tyrosine, arogenate and chorismate, at 0.15 mM each, on the activity of Brachypodium DHS enzymes.
molecule,measurement,setting,value
B1,phenylalanine accumulation compared to tdTomato control,[1],18 times
same,phenylalanine content,[1],~2000 nmol/gFW
same,shikimate accumulation compared to tdTomato control,[1],3 times
same,tryptophan accumulation compared to tdTomato control,[1],3 times
same,tyrosine accumulation compared to tdTomato control,[1],10 times
same,prephenate and arogenate relative to the control,[2],~100 times
same,impact of effector combinations on DHS activity,[3],None of the combinations tested had a significant impact

# Reference: US20250115926A1, “DEREGULATED DHS AND TYRA ENZYMES OF GRASSES ENABLE EFFICIENT PRODUCTION OF BOTH TYROSINE AND PHENYLALANINE” (Wisconsin Alumni Research Foundation, priority 2023, published 2025)
